Molecular target: GLP-1 receptor
Test: cell-based or functional assay

Binder	In Vitro Activity (% of Val^8-GLP-1)
Val^8-GLP-1-IgG1 (Fc fusion) HVEGTFTSDVSSYLEGQAAKEFIAWLVKGRGA[omitted - human IgG1 Fc]	1 % of Val^8-GLP-1
Val^8-Glu^22-GLP-1-IgG1 (Fc fusion) HVEGTFTSDVSSYLEEQAAKEFIAWLVKGRGA[omitted - human IgG1 Fc]	3.7 % of Val^8-GLP-1

— patent US20040053370A1 (Eli Lilly, published 2004)
